# The supplement of paper PMC8728848
# Some of the results follow.
# Tests used:
# Assay in all cases: glycan array binding signal (z-score within array); higher = stronger binding
# Settings in all cases: glycan notation: IUPAC condensed, linker removed
# [1] = target: Fuc(a1-2)Gal6S(b1-4)Glc6S
# Outline: (§1)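 Glycan array data were curated from 3228 arrays in the Consortium for Functional Glycomics database and kept only where the protein sequence was available. Glycan names were converted to IUPAC-condensed notation, and columns mapping to the same glycan were averaged. The binding signal is a within-array Z-score, averaged across arrays of the same protein sequence at different concentrations or buffers and across linkers. Negative Z-scores can be read as non-binding.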
# [2] = target: Fuc(a1-2)Gal6S(b1-4)GlcNAc
# Outline: as §1
# Fuc(a1-2)GlcNAc = target: Fuc(a1-2)GlcNAc
# Outline: as §1
# Fuc(a1-2)[Gal(a1-3)]Gal = target: Fuc(a1-2)[Gal(a1-3)]Gal
# Outline: as §1
# [3] = target: Fuc(a1-2)[Gal(a1-3)]Gal(b1-3)GalNAc
# Outline: as §1
# [4] = target: Fuc(a1-2)[Gal(a1-3)]Gal(b1-3)GlcNAc
# Outline: as §1
# [5] = target: Fuc(a1-2)[Gal(a1-3)]Gal(b1-3)GlcNAc(b1-2)Man(a1-3)[Fuc(a1-2)[Gal(a1-3)]Gal(b1-3)GlcNAc(b1-2)Man(a1-6)]Man(b1-4)GlcNAc(b1-4)GlcNAc
# Outline: as §1
# [6] = target: Fuc(a1-2)[Gal(a1-3)]Gal(b1-3)GlcNAc(b1-2)Man(a1-3)[Fuc(a1-2)[Gal(a1-3)]Gal(b1-3)GlcNAc(b1-2)Man(a1-6)]Man(b1-4)GlcNAc(b1-4)[Fuc(a1-6)]GlcNAc
# Outline: as §1
# [7] = target: Fuc(a1-2)[Gal(a1-3)]Gal(b1-3)GlcNAc(b1-3)GalNAc
# Outline: as §1
# [8] = target: Fuc(a1-2)[Gal(a1-3)]Gal(b1-4)Glc
# Outline: as §1
# [9] = target: Fuc(a1-2)[Gal(a1-3)]Gal(b1-4)GlcNAc
# Outline: as §1
# [10] = target: Fuc(a1-2)[Gal(a1-3)]Gal(b1-4)GlcNAc(b1-2)Man(a1-3)[Fuc(a1-2)[Gal(a1-3)]Gal(b1-4)GlcNAc(b1-2)Man(a1-6)]Man(b1-4)GlcNAc(b1-4)GlcNAc
# Outline: as §1
# [11] = target: Fuc(a1-2)[Gal(a1-3)]Gal(b1-4)GlcNAc(b1-2)Man(a1-3)[Fuc(a1-2)[Gal(a1-3)]Gal(b1-4)GlcNAc(b1-2)Man(a1-6)]Man(b1-4)GlcNAc(b1-4)[Fuc(a1-6)]GlcNAc
# Outline: as §1
# [12] = target: Fuc(a1-2)[Gal(a1-3)]Gal(b1-4)GlcNAc(b1-3)GalNAc
# Outline: as §1
# [13] = target: Fuc(a1-2)[Gal(a1-3)]Gal(b1-4)[Fuc(a1-3)]Glc
# Outline: as §1
# [14] = target: Fuc(a1-2)[Gal(a1-3)]Gal(b1-4)[Fuc(a1-3)]GlcNAc
# Outline: as §1
# [15] = target: Fuc(a1-2)[Gal(a1-3)]Gal(b1-4)[Fuc(a1-3)]GlcNAc(b1-3)GalNAc
# Outline: as §1
# [16] = target: Fuc(a1-2)[Gal(a1-4)]Gal(b1-4)GlcNAc
# Outline: as §1
# [17] = target: Fuc(a1-2)[GalNAc(a1-3)]Gal
# Outline: as §1
# [18] = target: Fuc(a1-2)[GalNAc(a1-3)]Gal(b1-3)GalNAc(a1-3)[Fuc(a1-2)]Gal(b1-4)GlcNAc
# Outline: as §1
# [19] = target: Fuc(a1-2)[GalNAc(a1-3)]Gal(b1-3)GlcNAc
# Outline: as §1
# [20] = target: Fuc(a1-2)[GalNAc(a1-3)]Gal(b1-3)GlcNAc(b1-2)Man(a1-3)[Fuc(a1-2)[GalNAc(a1-3)]Gal(b1-3)GlcNAc(b1-2)Man(a1-6)]Man(b1-4)GlcNAc(b1-4)GlcNAc
# Outline: as §1
# [21] = target: Fuc(a1-2)[GalNAc(a1-3)]Gal(b1-3)GlcNAc(b1-2)Man(a1-3)[Fuc(a1-2)[GalNAc(a1-3)]Gal(b1-3)GlcNAc(b1-2)Man(a1-6)]Man(b1-4)GlcNAc(b1-4)[Fuc(a1-6)]GlcNAc
# Outline: as §1
# [22] = target: Fuc(a1-2)[GalNAc(a1-3)]Gal(b1-3)GlcNAc(b1-3)GalNAc
# Outline: as §1
# [23] = target: Fuc(a1-2)[GalNAc(a1-3)]Gal(b1-4)Glc
# Outline: as §1
# [24] = target: Fuc(a1-2)[GalNAc(a1-3)]Gal(b1-4)GlcNAc
# Outline: as §1
# [25] = target: Fuc(a1-2)[GalNAc(a1-3)]Gal(b1-4)GlcNAc(b1-2)Man(a1-3)[Fuc(a1-2)[GalNAc(a1-3)]Gal(b1-4)GlcNAc(b1-2)Man(a1-6)]Man(b1-4)GlcNAc(b1-4)GlcNAc
# Outline: as §1
# [26] = target: Fuc(a1-2)[GalNAc(a1-3)]Gal(b1-4)GlcNAc(b1-2)Man(a1-3)[Fuc(a1-2)[GalNAc(a1-3)]Gal(b1-4)GlcNAc(b1-2)Man(a1-6)]Man(b1-4)GlcNAc(b1-4)[Fuc(a1-6)]GlcNAc
# Outline: as §1
# [27] = target: Fuc(a1-2)[GalNAc(a1-3)]Gal(b1-4)GlcNAc(b1-3)Gal(b1-4)GlcNAc
# Outline: as §1
# [28] = target: Fuc(a1-2)[GalNAc(a1-3)]Gal(b1-4)GlcNAc(b1-3)Gal(b1-4)GlcNAc(b1-3)Gal(b1-4)GlcNAc
# Outline: as §1
# [29] = target: Fuc(a1-2)[GalNAc(a1-3)]Gal(b1-4)GlcNAc(b1-3)GalNAc
# Outline: as §1
# [30] = target: Fuc(a1-2)[GalNAc(a1-3)]Gal(b1-4)[Fuc(a1-3)]GlcNAc
# Outline: as §1
# [31] = target: Fuc(a1-2)[GalNAc(a1-3)]Gal(b1-4)[Fuc(a1-3)]GlcNAc(b1-3)GalNAc
# Outline: as §1
# [32] = target: Fuc(a1-2)[GalNAc(a1-4)]Gal(b1-4)GlcNAc
# Outline: as §1
# [33] = target: Fuc(a1-2)[GalNAc(b1-3)]Gal
# Outline: as §1
# Fuc(a1-3)GlcNAc = target: Fuc(a1-3)GlcNAc
# Outline: as §1
# [34] = target: Fuc(a1-3)[Gal(b1-4)]Glc6S
# Outline: as §1
# [35] = target: Fuc(a1-3)[Gal(b1-4)]GlcNAc
# Outline: as §1
binder,measurement,setting,value
"FedF (Escherichia coli), Q47212 (protein) MRLKYILIIPLLLISLSVFASTLQVDKSVSYDWINSSASSAQVTGTLLGTGKTNTTQMPALYTWQHQIYNVNFIPSSSGTLTCQAGTILVWKNGRETQYALECRVSIHHSSGSINESQWGQQSQVGFGTACGNKKCRFTGFEISLRIPPNAQTYPLSSGDLKGSFSLTNKEVNWSASIYVPAIAKSYRLDTSITLPDTVNLKQNQATPVYYTFSAPSVSNTITGIPNQNDMPSSNVKLTIGPIQSKTTALYVQPDATGSWYDLSKSITMTVVKSSMLNFKGINAKPGNVTLSVPIVFEIQ",glycan array binding signal (z-score),[1],-0.185
same,glycan array binding signal (z-score),[2],-0.183
same,glycan array binding signal (z-score),Fuc(a1-2)GlcNAc,0.049
same,glycan array binding signal (z-score),Fuc(a1-2)[Gal(a1-3)]Gal,0.117
same,glycan array binding signal (z-score),[3],-0.084
same,glycan array binding signal (z-score),[4],-0.103
same,glycan array binding signal (z-score),[5],-0.04
same,glycan array binding signal (z-score),[6],-0.229
same,glycan array binding signal (z-score),[7],-0.075
same,glycan array binding signal (z-score),[8],-0.259
same,glycan array binding signal (z-score),[9],-0.44
same,glycan array binding signal (z-score),[10],-0.099
same,glycan array binding signal (z-score),[11],-0.179
same,glycan array binding signal (z-score),[12],-0.113
same,glycan array binding signal (z-score),[13],-0.162
same,glycan array binding signal (z-score),[14],0.755
same,glycan array binding signal (z-score),[15],-0.134
same,glycan array binding signal (z-score),[16],-0.434
same,glycan array binding signal (z-score),[17],0.212
same,glycan array binding signal (z-score),[18],-0.154
same,glycan array binding signal (z-score),[19],-0.282
same,glycan array binding signal (z-score),[20],-0.123
same,glycan array binding signal (z-score),[21],-0.137
same,glycan array binding signal (z-score),[22],0.165
same,glycan array binding signal (z-score),[23],-0.189
same,glycan array binding signal (z-score),[24],-0.131
same,glycan array binding signal (z-score),[25],0.386
same,glycan array binding signal (z-score),[26],-0.114
same,glycan array binding signal (z-score),[27],-0.209
same,glycan array binding signal (z-score),[28],0.492
same,glycan array binding signal (z-score),[29],-0.148
same,glycan array binding signal (z-score),[30],-0.311
same,glycan array binding signal (z-score),[31],0.093
same,glycan array binding signal (z-score),[32],0.358
same,glycan array binding signal (z-score),[33],-0.104
same,glycan array binding signal (z-score),Fuc(a1-3)GlcNAc,-0.241
same,glycan array binding signal (z-score),[34],-0.094
same,glycan array binding signal (z-score),[35],-0.361
